Structures are written as SMILES. Where “and” joins values, the source holds several entries; their conditions need not be identical. Identical values can stand only once. The campaign covered roughly 48,000 compounds. About 1,200 (2.5%) were called active. Roughly 2% stayed inconclusive and do not appear here.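 The calls were made as follows: active = activation of at least 60% and not above a set upper limit (about 1 call in 100 departs from these limits); inconclusive = activation of 40% to 60%, or above that upper limit; inactive = activation under 40%.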 The list shows a part of the results.

This assay deals with Probable G-protein coupled receptor 32 (Homo sapiens) (UniProt O75388). Nature of the assay: qHTS for Agonists of Human Resolvin D1 Receptor DRV1. Also: 0% is about no effect. The note with it: CHO-K1 GPR32 beta-arrestin PathHunter luminescence, 90 min; at 76.9 µM; active compounds read high; zero percent set by DMSO-only wells. The gist of the method: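 Cells are plated overnight, treated with compounds in DMSO for 90 minutes at 37 °C, and developed with PathHunter detection reagent for 1 hour before luminescence is read; signal reflects beta-arrestin binding to GPR32 in engineered CHO-K1 cells.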
UniProt O75388, sequence (O75388 whole entry, looked up): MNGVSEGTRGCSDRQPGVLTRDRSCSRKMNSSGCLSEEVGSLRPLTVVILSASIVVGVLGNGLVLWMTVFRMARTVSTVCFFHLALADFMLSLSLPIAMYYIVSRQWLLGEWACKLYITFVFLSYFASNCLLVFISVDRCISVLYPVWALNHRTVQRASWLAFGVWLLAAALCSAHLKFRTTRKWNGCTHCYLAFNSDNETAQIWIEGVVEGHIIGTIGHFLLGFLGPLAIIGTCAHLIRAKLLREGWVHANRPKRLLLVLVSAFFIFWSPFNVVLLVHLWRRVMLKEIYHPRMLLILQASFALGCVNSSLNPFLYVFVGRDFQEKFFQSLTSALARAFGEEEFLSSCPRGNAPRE
In general terms: In qHTS, concentration-response curves come from the screen itself.
Consider `CC1=C(C(=O)Nc2ccccc2)C(c2ccncc2)n2nc(SCc3ccccc3)nc2N1` (stereo not given), for which the activation is inactive: 9.58%. For `Cc1c(C(=O)Nc2ccc(F)cc2F)nnn1-c1ccccc1Br` the value was inactive: 13.5%.

On to `CCc1nn(CC(=O)NCc2cccc(OC)c2OC)c(=O)c2cc3occc3n12`, for which the activation was inactive: -13.6%. `Cc1nnc(N2CCC(C(=O)NCc3ccc(N(C)C)cc3)CC2)c2nn(-c3ccccc3)c(C)c12`: the activation is inactive: -14.9%. Take `COc1ccc(NC(=O)C2=C(C)Nc3nc(SC)nn3C2c2cc(OC)ccc2OC)cc1` (stereo not given): the activation was inactive: 28.7%. On to `O=C(NCCCO)C(=O)Nc1c2c(nn1-c1ccc(F)cc1)CSC2`, for which the activation was inactive: -12.8%. For the compound `Cc1ccc(C(=O)COC(=O)C(Cc2c[nH]c3ccccc23)NC(=O)c2ccc(Br)cc2)cc1` (stereo not given), the activation is inactive: -16.3%. Take `O=C(CSc1nc2ccccc2n1Cc1cccc(Cl)c1)N1CCN(c2ccc(F)cc2)CC1`: the activation is inactive: -19.2%.

Consider `CN(CC(=O)Nc1cccc(C#N)c1)S(=O)(=O)c1cc2c(cc1Cl)NC(=O)CO2`, for which the activation was inactive: 17.3%. For `CCOc1ccccc1CNC(=O)CC(C)n1ccc(C)n1` (stereo not given) the value was inactive: -1.78%.

On to `O=C(Nc1ccc(Cl)cc1)c1ccc2c(c1)N(Cc1ccccc1)C(=O)c1ccccc1S2(=O)=O`, for which the activation was inactive: -18.2%.

Regarding `Cc1cc2oc(C(=O)Nc3cccc(-c4nc5ccccc5o4)c3)c(C)c2cc1Cl`, the activation is inactive: 28%. Take `COc1ccc(OC)c(CNC(=O)Cn2nc(C)c3c(C)n(-c4ccccc4)nc3c2=O)c1`: the activation was inactive: -8.21%. Turning to `O=C1C2=C(Nc3ccccc3SC2c2c(F)cccc2Cl)c2ccccc21` (stereo not given), the activation is inactive: -7.24%. `COc1ccc(NC(=O)Nc2cn(CC(C)C)c(=O)c3ccccc23)c(OC)c1`: the activation was inactive: -28%.

On to `COc1ccc(-c2cc(-c3ccccc3)nc3c2COc2ccc(Cl)cc2-3)cc1`, for which the activation is inactive: 4.47%. For `O=C(NCCc1ccc(F)cc1)C(=O)NCC(c1cccs1)S(=O)(=O)c1cccs1` (stereo not given) the value was inactive: 4.59%.

Turning to `COC(=O)c1ccc(NS(=O)(=O)c2ccc3[nH]c4c(c3c2)CCCCC4)cc1`, the activation was inactive: 16.7%. Consider `Cc1oc2ncn(C)c(=O)c2c1C(=O)N(C)c1ccccc1F`, for which the activation is inactive: -11.2%.

For the compound `CC(C)(C)OC(=O)N1CCC(c2c(C(=O)N3CCN(C4CCCCC4)CC3)cnn2-c2cccc(Cl)c2)CC1`, the activation is inactive: -25.4%.

Take `COc1ccc(NC(=O)CSC2=Nc3ccccc3C3=NC(CCC(=O)NCCc4ccccc4)C(=O)N23)cc1` (stereo not given): the activation was inactive: -6.89%. Take `CCN1C(=O)C(O)(c2c(C)[nH]c3ccccc23)c2ccccc21` (stereo not given): the activation is inactive: 48.3%. For the compound `CC(=O)N1CCCc2cc(S(=O)(=O)N3CCC(C(=O)NC4CCCCC4)CC3)ccc21`, the activation was inactive: 0.286%.

For `CCOC(=O)N1CCC(NC(=O)c2cnn(-c3cccc(C)c3)c2-n2cccc2)CC1`, the activation was inactive: -4.49%. On to `Cn1cc[nH]c1=S`, for which the activation was active: 65.4%. For `Cc1ccc(C)c(NC(=O)C(C)N(c2ccccc2)S(C)(=O)=O)c1` (stereo not given) the value was inactive: -9.17%; for `Cc1oc2ncn(CC(C)C)c(=O)c2c1C(=O)Nc1ccc(Cl)cn1`, inactive: -5.97%; for `Cc1cccc(-n2cc(-c3ccccc3)nc2SCC(=O)Nc2ccccc2Cl)c1`, inactive: -25.6%. In the case of `Cc1ccc(C)c(S(=O)(=O)NCC(c2ccc(N(C)C)cc2)N2CCOCC2)c1` (stereo not given), the activation is inactive: -25.6%.

Take `O=C(NCc1ccccc1Cl)C1CCCN(c2nc3ccccc3n3cccc23)C1` (stereo not given): the activation is inactive: -22.9%. For `CC(C)c1ccc(NS(=O)(=O)c2ccc3[nH]cc(C(=O)NC4CCCCC4)c(=O)c3c2)cc1` the value was inactive: -0.234%. On to `CCOc1ccc(CNCCNC(=O)c2nonc2N)cc1`, for which the activation was inactive: -0.0004%. `Cc1cccc(OCCn2nnc3sc4c(c3c2=O)CCCC4)c1`: the activation is inactive: -18.2%. With `CCOC(=O)c1sc(NC(=O)c2nc(SC)ncc2Cl)c(C(=O)OCC)c1C`, the activation is inactive: -6.2%.

As to `CC1=C(C(=O)Nc2ccc(C)cc2C)C(c2ccc(C(C)C)cc2)n2nc(C(F)(F)F)nc2N1` (stereo not given), the activation is inactive: -29.6%. Turning to `COc1ccc(-n2c(-c3ccc(Cl)cc3)cc3c2CC(C)(C)CC3=O)c(OC)c1`, the activation was inactive: -24.1%. Regarding `Cc1ccc(NC(=O)Cn2nnc(-c3ccccc3)n2)c(C)c1`, the activation was inactive: 20.2%. With `Cc1ccc(NC(=O)CN2C(=O)c3cccnc3Sc3ccccc32)c(Br)c1`, the activation was inactive: -13%. Regarding `Cc1ccc(Nc2c3c(nc4nncn24)CCC3)c(C)c1`, the activation is inactive: -9.77%. For the compound `COc1ccc2c(c1)-c1nc(NC(=O)c3cccc(Br)c3)sc1CC2`, the activation is inactive: -32.2%.

For `CC1CCN(S(=O)(=O)c2cc(C(=O)N3CCN(c4cccc(Cl)c4)CC3)n(C)c2)CC1`, the activation is inactive: -2.1%. As to `O=C(C1COc2ccccc2O1)N(Cc1cccnc1)c1nc2c(F)cccc2s1` (stereo not given), the activation was inactive: -13.4%.

Turning to `CCOC(=O)c1c(NC(=O)c2cc(-c3cccc(Cl)c3)on2)sc(C(C)=O)c1C`, the activation is inactive: -12.1%. In the case of `COc1ccc(N(CC(=O)N2CCc3ccccc3C2)S(=O)(=O)c2ccccc2)cc1`, the activation was inactive: 0.86%. For `CCOC(=O)c1nnn(C(CC)C(=O)Nc2ccc(F)cc2)c1C(=O)OCC` (stereo not given), the activation was inactive: 10.2%.

For `COc1ccccc1C1C(C(=O)N2CCCCC2)=C(C)Nc2nc3ccccc3n21` (stereo not given), the activation is inactive: -5.32%.

Regarding `CCOc1ccc(S(=O)(=O)c2cn(CC)c3ccc(F)cc3c2=O)cc1`, the activation was inactive: 1.44%. On to `CSc1ccc(CCNC(=O)Cn2c(C)c3cnn(-c4ccccc4)c(=O)c3c2C)cc1`, for which the activation is inactive: 6.23%.

With `COc1cccc(/C=C/c2nc(C#N)c(NC3CCCCC3)o2)c1`, the activation is inactive: 49.1%. Consider `Cc1ccc(CNC(=O)c2ccc(Cn3c(SCc4ccc(F)cc4)nc4cccnc43)cc2)o1`, for which the activation is inactive: -15.9%. Take `O=c1n(Cc2ccc(F)cc2)c2ccccc2c2nc(-c3ccccc3)nn12`: the activation was inactive: -0.0545%. For `CCc1cccc(NC(=O)CSc2nnc(-c3cc4occc4n3C)n2-c2ccccc2C)c1` the value was inactive: -28%; for `Cc1ccc(-n2nc(CO)c(C(=O)NCCC(C)C)n2)cc1C`, inactive: -4.08%; for `COc1cccc(-n2c(=O)c3sc4ccccc4c3n(Cc3c(F)cccc3Cl)c2=O)c1`, inactive: 2.79%. For `CCOC(=O)c1c(C)oc2nc(C)nc(NCC3CCN(Cc4cc(C)ccc4C)CC3)c12` the value was inactive: 5.32%. With `CCCN(C(=O)CCc1nc(-c2ccc(C)cc2)no1)c1ccc(OCC)cc1`, the activation was inactive: -34.6%. For `Cc1ccc(N2C(=O)C(CC(=O)Nc3cccc(F)c3)N(CCc3ccccc3F)C2=O)cc1` (stereo not given) the value was inactive: -19.2%; for `NC1=NCC2c3ccccc3Cc3ccccc3N12` (stereo not given), inactive: 0.786% and inactive: 7.66%; for `CCc1ccc(OC(=O)CSc2nnc(-c3ccc(OC)c(OC)c3)o2)cc1`, inactive: -9.85%. Turning to `CCNC(=O)c1ccc2c(c1)sc1nc(-c3cccc(OC)c3)cn12`, the activation was inactive: -11.5%.

With `CC(Oc1ccccc1)C(=O)Nc1cccc(-c2cn3cccnc3n2)c1` (stereo not given), the activation was inactive: 39.5%. Regarding `O=C(NCCc1ccccc1)c1ccc2c(c1)N(Cc1ccc(F)cc1Cl)C(=O)CS2`, the activation was active: 108%.

For the compound `Cc1ccc(NC(=O)N2CCC3(CC2)Oc2ccccc2C(=O)N3Cc2ccc(F)cc2)cc1`, the activation is inactive: -16.1%.

With `O=C(O)CCC(=O)O`, the activation was inactive: 2.99%. Take `Cc1c2cnn(CC(=O)NC(C)C)c(=O)c2c(C)n1Cc1cccc(Cl)c1`: the activation is inactive: 4.96%. In the case of `COc1ccc(/C=C/c2nc(C#N)c(NCc3ccc(C)cc3)o2)cc1OC`, the activation was inactive: -20.3%.

As to `CCOc1ccc(NC(=O)CC2C(=O)N(c3ccccc3)C(=O)N2CCc2sccc2C)cc1` (stereo not given), the activation is inactive: -0.243%. For `O=C(Cn1cc(SCc2cccc(Cl)c2)c2ccccc21)N1CCCCC1` the value was inactive: -20%. Turning to `CCOc1nc(-c2ccccc2)ccc1-c1noc(-c2ccc(C)cc2)n1`, the activation was inactive: -13.4%. As for `Fc1ccc(-c2cc(-c3nc(-c4ccc(Cl)cc4)no3)[nH]n2)cc1`, the activation was inactive: -2.89%. Turning to `COc1ccc(S(=O)(=O)c2c(C(=O)c3ccc(C)c(C)c3)cnc3ccc(C)cc23)cc1`, the activation is inactive: -27.1%. For `Cc1c(C(=O)OC2CCC(C)CC2)[nH]c2c1C(=O)CC(c1ccc(N(C)C)cc1)C2` (stereo not given), the activation is inactive: -19.3%. Regarding `CC(=O)c1ccc(NC(=O)c2nc(-c3ccc(Cl)cc3)n3c2CCCCC3)cc1`, the activation is inactive: -20.4%. Regarding `CC(C)(C)OC(=O)N1CCC(c2c(C(=O)N3CCN(C(=O)c4ccco4)CC3)cnn2-c2cccc(Cl)c2)CC1`, the activation is inactive: -4.48%. In the case of `Cc1ccccc1CSc1nc2c(sc3ccccc32)c(=O)n1CCCC(=O)NCCCOC(C)C`, the activation was inactive: -15.1%. On to `COc1cccc(OCC(=O)NC2CC(=O)N(c3cccc(OC)c3)C2)c1` (stereo not given), for which the activation was inactive: -8.9%. For `COC(=O)c1cc(NC(=O)CC2C(=O)OCCN2Cc2ccccc2)cc(C(=O)OC)c1` (stereo not given), the activation was inactive: 2.06%.

For `CN(c1nnc(NC(=O)Nc2ccccc2C(F)(F)F)s1)C1CCCCC1`, the activation is inactive: -28.1%. With `NC(=O)N1c2ccccc2CC(=O)c2ccccc21`, the activation was inactive: -8.27%. Take `COc1ccc(NC(=O)Cn2c(=O)c3ccccc3n3nncc23)cc1Cl`: the activation is inactive: 5.8%.

Consider `Cc1cccc(OCC(=O)N2CCC(c3nc4ccccc4o3)CC2)c1C`, for which the activation was inactive: -8.01%. As to `Cc1cc(C)c2c(=O)cc(C(=O)Nc3sc4c(c3C(=O)NCc3ccco3)CCCC4)oc2c1`, the activation is inactive: 15.3%. With `CS(=O)(=O)CC[C@@H](C(=O)NCCc1ccccc1)N1Cc2ccccc2C1=O`, the activation was inactive: -8.51%. Turning to `COCc1cc(C)nc2c1C(=O)NC(c1ccc(NC(C)=O)cc1)N2Cc1ccccc1` (stereo not given), the activation is inactive: 35.3%. Consider `COc1ccc(S(=O)(=O)c2c(Nc3ccc(C)cc3C)sc(C(=O)c3ccc(F)cc3)c2N)cc1`, for which the activation was inactive: -32.7%.

The values are drawn from PubChem BioAssay AID1346428 (National Center for Advancing Translational Sciences (NCATS), 2018).
